Screen size: about 360,000 compounds; about 2,600 (0.72%) were called active. The shares of active, inactive and inconclusive entries below differ from those in the screen. Calls follow the shape of the dose curve; as a rule, active = well fitted inhibition curve with a large enough effect; inconclusive = small, poorly fitted or top-dose-only effect; inactive = no such curve, though single readings can be large or run the other way. Where the call is inconclusive, the potency comes from a doubtful curve fit.
Assay: Primary qHTS for Inhibitors of ATXN expression; also: nearly all actives have a fitted effect of over 55% in size
Details: HEK-293 ATXN2-luciferase reporter, luminescence, 24 h; activity change, negative = inhibition: at 57 µM (top of the series)
Method in brief: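 qHTS (up to 57 uM final) was run with 24 h compound exposure of reporter cells at 37 °C. Each well was multiplexed: SteadyGlo luminescence measured ATXN2-luciferase expression after a fluorogenic Gly-Phe-AFC viability readout (25 uM final).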
% is scaled to controls: 0 for no effect and ±100 for the full control effect; potency is read from the fitted curve at half-maximal effect; tags tell the direction and shape of the fitted curve.

| Structure (SMILES) | activity change, negative = inhibition | Potency |
| --- | --- | --- |
| Cn1ncc2c(Nc3ccc(Br)cc3)nc(Nc3ccc(Br)cc3)nc21 | inactive: -31.8% |  |
| CCCN(CCC)CC(O)Cn1cc(/C=C/C(=O)c2ccc(OCC)cc2)c2ccccc21 (stereo unspecified) |  | inconclusive: 39.8 µM [inhibitor, single point] |
| O=C(Nc1cccc(Br)c1)c1cccc(S(=O)(=O)N2CCCCCC2)c1 |  | inconclusive: 27.3 µM [inhibitor, single point] |
| COc1ccc(NC(=O)Cc2csc(COc3cccc(C)c3)n2)c(OC)c1 |  | inconclusive: 3.16 µM [inhibitor, partial curve, poor fit] |
| COc1ccc(Nc2nc(N)nc(CSc3nc4cc(OC)ccc4s3)n2)cc1 |  | inconclusive: 39.8 µM [inhibitor, single point] |
| O=C(N/N=C/c1cc([N+](=O)[O-])ccc1O)c1cccc2cc[nH]c12 |  | active: 3.16 µM |
| Cc1ccc(-c2csc3ncnc(N4CCN(S(=O)(=O)c5cccs5)CC4)c23)cc1 |  | inconclusive: 39.8 µM [inhibitor, single point] |
| O=C(c1ccc(F)cc1)C1CCN(CCn2c(=S)[nH]c3ccccc3c2=O)CC1 |  | inconclusive: 15.8 µM [inhibitor, partial curve, poor fit] |
| O=C(O)Cn1nnc(-c2cc(N3CCC(Oc4cc(F)ccc4Br)CC3)no2)n1 |  | inconclusive: 0.544 µM [inhibitor, full curve] |
| Cc1ccc(-c2ccc(/C=N\NC(=O)c3cc4c(ccc5ccccc54)o3)o2)cc1[N+](=O)[O-] |  | inconclusive: 33.6 µM [inhibitor, single point] |
| CCCCCn1c(=N)n(CC(O)COc2cccc(C)c2)c2ccccc21 (stereo unspecified) |  | active: 31.6 µM |
| CC1CCN(c2c([N+](=O)[O-])c(=O)oc3ccccc23)CC1 |  | inconclusive: 10.6 µM [inhibitor, partial curve, poor fit] |
| COCCn1c(SCC(=O)c2ccc(Cl)cc2)nnc1C(C)C | inactive: 0.696% |  |
| c1ccc(-c2nn3c(c2-c2ccnc4cc(OCCN5CCOCC5)ccc24)CCC3)nc1 |  | inconclusive: 9.68 µM [inhibitor, partial curve] |
| NC(=O)SCC(=O)Nc1ccc(Cl)c(Cl)c1 |  | inconclusive: 20 µM [inhibitor, partial curve, poor fit] |
| NC(=O)CSc1nnc(-c2ccccc2F)n1C1CC1 | inactive: 20.1% |  |
| COc1cc(C2CC(c3cccs3)=NN2C(=O)CCl)ccc1OC(F)F (stereo unspecified) |  | inconclusive: 22.4 µM [inhibitor, partial curve, poor fit] |
| CCn1c2ccccc2c2cc(NC(=O)COC(=O)c3ccc(O)cc3)ccc21 |  | inconclusive: 14.1 µM [inhibitor, partial curve] |
| CC1(C(=O)Nc2ccc3[nH]ncc3c2)CCN1C(=O)CCc1ccccc1 (stereo unspecified) | inactive: 11.6% |  |
| Clc1ccc(CN2CCC(c3nc4ccc(Cl)cc4[nH]3)CC2)cc1 |  | inconclusive: 20 µM [inhibitor, partial curve] |
| CC1CCCC(NC(=S)Nc2ccc(SC(F)F)cc2)C1C (stereo unspecified) |  | inconclusive: 39.8 µM [inhibitor, single point] |
| N#C/C(=C/c1ccc(Sc2nc3ccccc3[nH]2)o1)c1cccc(F)c1 |  | inconclusive: 39.8 µM [inhibitor, single point] |

| Structure (SMILES) | activity change, negative = inhibition | Potency |
| --- | --- | --- |
| COc1cc2c(cc1NC(=O)c1cccc([N+](=O)[O-])c1)oc1ccccc12 |  | inconclusive: 10 µM [inhibitor, partial curve] |
| CC(C)(C)NCC(O)COc1ccccc1C(=O)CCc1ccccc1 (stereo unspecified) |  | inconclusive: 28.2 µM [inhibitor, single point] |
| COc1cc(/C=C2/C(=O)c3cccc([N+](=O)[O-])c3C2=O)c(Br)cc1O |  | active: 22.4 µM |
| O=C(Nc1ccccc1C(F)(F)F)N1CCN(c2ccc3nnc(-c4ccc(F)cc4)n3n2)CC1 |  | inconclusive: 28.2 µM [inhibitor, single point] |
| N#C/C(=C\c1cccc([N+](=O)[O-])c1)C(=O)NCc1cccnc1 | inactive: -6.24% |  |
| CC(=O)c1ccc(NC(=O)Nc2ncn(Cc3cccc(C)c3)n2)cc1 | inactive: 7.73% |  |
| COc1ccc(-c2nnc(NC(=O)c3cc(Cl)ccc3Cl)o2)cc1 |  | inconclusive: 35.5 µM [inhibitor, single point] |
| Cc1ccc2sc(N(CCCN(C)C)C(=O)c3ccc(S(=O)(=O)N(C)Cc4ccccc4)cc3)nc2c1C |  | inconclusive: 31.6 µM [inhibitor, single point] |
| Cc1cccc(-c2nnc(SCC(=O)NC3CCCCC3)o2)c1 | inactive: -0.114% |  |
| Cc1ccccc1-n1nnnc1Sc1nnnn1-c1ccccc1 |  | inconclusive: 39.8 µM [inhibitor, single point] |
| Cc1ccc2oc3c(c(=O)c2c1)C(c1cccc(O)c1)N(CCCN1CCOCC1)C3=O (stereo unspecified) | inactive: -1.38% |  |
| COc1ccc(CCN2C(=O)c3cccc4c(C(=O)N5CCCCC5)ccc(c34)C2=O)cc1OC |  | inconclusive: 39.8 µM [inhibitor, single point] |
| CC(=O)N1Cc2cc(C(=O)NCC(F)(F)F)nc(-c3cccc(-c4cc5ccccc5o4)c3)c2[C@@H]1CCO | inactive: -9.96% |  |
| CCn1c(=NC(=O)c2ccc(N3C(=O)CCC3=O)cc2)sc2c(OC)ccc(OC)c21 |  | inconclusive: 8.91 µM [inhibitor, partial curve, poor fit] |
| CC1CN(c2nc3ccccc3nc2SCC(=O)Nc2cccc(C(F)(F)F)c2)CC(C)O1 (stereo unspecified) |  | inconclusive: 17.8 µM [inhibitor, partial curve] |
| N=c1ccn(Cc2cccc(F)c2)cc1 | inactive: -23.3% |  |
| Cc1nn(C)c2c1c(-c1ccccc1)cc(=O)n2Cc1c(F)cccc1Cl | inactive: 11.7% |  |
| C/C(=N\NC(=O)C(N)=O)c1ccc2c(c1)OCCO2 |  | inconclusive: 2.38 µM [inhibitor, partial curve, poor fit] |
| O=C(Nc1ccc(Br)cc1)c1ccc(F)c(S(=O)(=O)N2CCN(c3ccccn3)CC2)c1 |  | inconclusive: 3.55 µM [inhibitor, partial curve, poor fit] |
| CCCC(C(=O)Nc1ccc(S(=O)(=O)N2CCOCC2)cc1)c1ccccc1 (stereo unspecified) |  | inconclusive: 39.8 µM [inhibitor, single point] |
| COc1cc2c(cc1NC(=O)COc1ccccc1OC)oc1ccccc12 |  | inconclusive: 12.6 µM [inhibitor, partial curve, poor fit] |
| COc1ccc(-c2nc(CSCC(=O)N3CCN(c4cccc(C)c4)C(C)C3)c(C)o2)cc1OC (stereo unspecified) |  | inconclusive: 26.7 µM [inhibitor, single point] |

| Structure (SMILES) | activity change, negative = inhibition | Potency |
| --- | --- | --- |
| CC1(C(=O)Nc2cnc3ccccc3c2)CCN1Cc1ccccc1OC(F)F (stereo unspecified) |  | inconclusive: 39.8 µM [inhibitor, single point] |
| CCC(=O)O[C@]1(C(=O)SCF)[C@H](C)C[C@H]2[C@@H]3C[C@H](F)C4=CC(=O)C=C[C@]4(C)[C@@]3(F)[C@@H](O)C[C@@]21C |  | inconclusive: 15.8 µM [inhibitor, full curve, poor fit] |
| O=C(CCC(=O)N1CCN(S(=O)(=O)c2ccc(Cl)cc2)CC1)NCc1cccc(C(F)(F)F)c1 |  | inconclusive: 4.47 µM [inhibitor, full curve] |
| CC(=O)Oc1ccc(N(C(C)=O)S(=O)(=O)c2cccs2)c2ccccc12 |  | active: 25.1 µM |
| O=C(CCS(=O)(=O)c1ccc(Cl)cc1)Nc1nnc(-c2cccs2)o1 | inactive: 3.94% |  |
| O=C(CSc1cccc[n+]1[O-])Nc1c(Br)cc([N+](=O)[O-])cc1Br | inactive: -7.68% [at 11.3 µM] |  |
| COc1ccc(/C=C/C(=O)NC(=S)NCCc2ccc(OC)c(OC)c2)cc1 |  | inconclusive: 11.2 µM [inhibitor, partial curve, poor fit] |
| OCC1(Cc2cccc(Cl)c2)CCCN(Cc2ccc3cc(F)ccc3n2)C1 (stereo unspecified) |  | inconclusive: 28.2 µM [inhibitor, partial curve, poor fit] |
| Cc1nn(C)cc1/C=N/NC(=O)CSc1ccccn1 | inactive: -3.26% |  |
| COc1ccc(S(=O)(=O)N2CCC(C(=O)Nc3cccc(C(C)=O)c3)CC2)cc1C | inactive: -9.22% |  |
| CCN1CCN(c2cc(C)c3cc(NC(=O)CCC(=O)N4CCN(c5ccccc5)CC4)ccc3n2)CC1 |  | inconclusive: 14.1 µM [inhibitor, partial curve, poor fit] |
| CCc1cc(Cl)c(OC)c(C(=O)NC[C@@H]2CCCN2CC)c1O |  | inactive |
| CC1CC(C)CN(c2ncc3c(n2)CC(c2ccc(Cl)cc2)CC3=O)C1 (stereo unspecified) | inactive: 0.6% |  |
| O=C(NCC1CCCO1)c1ccc2c(c1)S(=O)(=O)c1ccccc1C2=O (stereo unspecified) | inactive: 4.05% |  |
| O=C(c1nc[nH]c1C(=O)N1CCc2ccccc2C1)N1CCc2ccccc2C1 | inactive: 0.0795% |  |
| Cc1nc(NC(=O)c2ccccc2)sc1-c1csc(NCc2ccco2)n1 |  | inconclusive: 3.55 µM [inhibitor, partial curve, poor fit] |
| Cc1n(Cc2ccccc2)c2ccccc2[n+]1Cc1ccccc1 |  | inconclusive: 4.47 µM [inhibitor, partial curve, poor fit] |
| COc1ccc(NC(=O)c2ccco2)cc1NC(=O)C(C)Oc1ccc(Cl)cc1Cl (stereo unspecified) |  | inconclusive: 39.8 µM [inhibitor, single point] |
| CCn1cc(C(=O)O)c(=O)c2cc(F)c(N/N=C/c3ccccc3[N+](=O)[O-])cc21 |  | inconclusive: 20 µM [inhibitor, partial curve, poor fit] |
| Cc1ccccc1-n1sc2cc(F)ccc2c1=O |  | inconclusive: 21.2 µM [inhibitor, single point] |
| CCOC(=O)c1cnc(Nc2nc3ccccc3o2)nc1C |  | active: 2.82 µM |
| CC(=O)Nc1cccc(-c2cc(NC=O)c3ncc(-c4ccc(F)c(Cl)c4)n3c2)c1 |  | inconclusive: 31.6 µM [inhibitor, single point] |

Source: PubChem BioAssay AID1745845 (National Center for Advancing Translational Sciences (NCATS), 2022)
